Measurements published in the supplement of paper PMC11417369.
The list shows a part of the results.

test system: PfHDP1 homeodomain (GST-tagged); assay: gcPBM binding intensity (ln(normalized median fluorescence intensity)); higher = stronger DNA binding
How it was run: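 DNA-binding domains from P. falciparum, fused to GST and produced in E. coli, were put on an Agilent 4 × 180k double-stranded probe array for 1 h in 1× PBS holding 1% milk, 0.2 mg/ml BSA, 0.5% salmon testes DNA and 0.03% Triton X-100. Probes were primer-extended, 36 bp long and drawn from intergenic genomic regions, with negative controls included. After Alexa488 anti-GST antibody detection and a 488 nm scan, binding intensity was set as the highest Masliner-normalised natural-log median intensity across replicate spots of either probe orientation.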

Sequence	gcPBM binding intensity (ln)
GCATATGTTCAGCGTTGTACATAAAAAAAAACATAT [XGTACX_site5974]	6.97
TTAAATAAATATAAGTGTACATACACACTTTACAAT [XGTACX_site6348]	6.35
GCGTAATCTATTTGCACACTTATTTGTTCTTAAAAA [CACACA_site672]	10
AAAAAATAATATTGTACACACATAAATTCTTTGTCA [CACACA_site5187]	6.35
ATGTATGGAAATTTTACACACAAGAGTAGTTTAAAA [CACACA_site1710]	6.22
TATGTGTATACAATATGTACATATGTTAACTTGTAT [XGTACX_site872]	6.8
AAATTTATTTCTGTGTGTCCACAAAAAAAAATCTTT [XGTACX_site691]	5.81
CTTATATTAAAACACACACACGCACAAAACAGAAAT [CACACA_site1462]	7.35
TAAGCCTTTCTATTATGTACTTATTAAAACATGTAG [XGTACX_site8022]	6.37
TTTTTTTTTTTCAATAGTACTTTCCATTTACATATA [XGTACX_site3889]	6.32
AAATTTAAAATAAGTAGTACATAATATAAATAAATA [XGTACX_site3592]	6.59
TATAAAAGAAACTATACACACATATTTTAAATATTT [CACACA_site2753]	6.26
GTACTTGTATTATGCACACATATAATTAAACATATA [CACACA_site3312]	10.1
ATTATAAACCAGAATGCATGTAGATGAATCTTTTCT [TGCATGCA_site284]	6.35
TAAAAATATAAAACATGTACATATATGCATATATTT [XGTACX_site8093]	6.69
ATATCATAAGTAGAAACACACAATTAGATTTTTTCC [CACACA_site2353]	6.08
TTTTATAAATACACACGTACGTGTGCATAACGTTTT [XGTACX_site3199]	9.18
AAAAAAAATAATATTGTACACACATAAATTCTTTGT [CACACA_site8654]	6.18
TACTTTTTAAAAATGTTTTATATAATAAAAAGATAT [CACACA_negctrl_site678]	6.57
TGAGAGTTCTCATATGCACACAAAAAACTTTCATTT [CACACA_site7898]	9.83
TTGCAACTCTTCAATCGTACACATTATTTATTATAT [XGTACX_site1377]	6.89
TACATATACATATACACACACACACCCAAATAAATA [CACACA_site1344]	7.17
AATAATAACACCGTGGATACACAATAACAAAGAACT [CACACA_negctrl_site532]	7.15

Sequence	gcPBM binding intensity (ln)
AAATATTTTTTTTCTACACACATACAAATATATATT [CACACA_site5325]	7.01
TTTCATTTAGCTTTTACACACTATATATCATTGATT [CACACA_site6158]	7.02
AATTAAATTAGAAGCACACACATATTTATATTTATA [CACACA_site7552]	6.39
ATACACTCACTCACACGTACAGACAACGGACGATCA [XGTACX_site1097]	6.98
GTATATATTTAAACACGTACACAAAACCCAAAAAAT [XGTACX_site8110]	7.33
GAAAAAAAAAAAAAAAAAAAAAGGAAAAAAGTGAAA [CACACA_negctrl_site996]	5.88
GAATAAATAGACGAGTGTACTTTTTTTTAAAAAAAA [XGTACX_site7880]	6.39
ACGTTTACGTTATTATGTACGTAATATATCATACCT [XGTACX_site5006]	6.11
ATAAAACAATAAAATTGTACATAAATTGATTATACT [XGTACX_site6723]	6.23
AATCTAATATAATGCACACATAAAAAAAAAATCAAA [CACACA_site2714]	10.2
TATATTTACAATAAAACGTTATTTTTTGTTATTTTC [CACACA_negctrl_site612]	6.44
TATATACATATATGTACACACATTACAGATGTACAT [CACACA_site966]	7.13
TTATTATAATCATTAGTGCATATATTATTTTTATAT	8.36
AAAAATATAAACTGCACACACACAAAAAAAGAAAAA [CACACA_site648]	7.53
AAATAAAAAAGTAGTACACACTTCACGATATTTTTT [CACACA_site6015]	6.19
CATATTTTTAAATACACACACATAAAAAAAAAAAAA [CACACA_site1095]	6.55
TTTTTTTTAAAAAACACACACCTAAACAAGATATTT [CACACA_site6541]	6.74
TTACGTTATATACATACACACCCACGCACAAAAAAA [CACACA_site6537]	7.63
TACAGATATTATTGCACACATATAAAATACCCCCAA [CACACA_site6014]	10.4
ATTAAATACTTCGATTGTACAATTTTTTTTTTTTTT [XGTACX_site832]	6.47
TAAGAATAATGACATAGTACAATTTAATAGATCTAA [XGTACX_site3670]	6.01
TTTTCAAAATAATATTATATCAAATGCTAAAAAGAA [TGCATGCA_negctrl_site588]	6.78
AAGTTTATTTGTTGCACACATATAAGTAGAGAAAAT [CACACA_site3027]	10.2

Sequence	gcPBM binding intensity (ln)
TTAATATAATAAAATCGTACAAATAAAATATAAAAT [XGTACX_site8730]	6.65
AAAAAAAAAAAAGATACACACAAAAATGGATATATA [CACACA_site7069]	6.15
AACCAATATGAGTATACACACATAAATATAAATATA [CACACA_site5968]	6.52
AAAAATGAGAAACACACACACATATATATATATATA [CACACA_site2228]	9.28
TCTTTAAATCGAGTGTTAAATAATATAATATAAAAA [CACACA_negctrl_site1507]	6.13
ATATATATATATCACCGTACTTATATAATAACATGA [XGTACX_site4398]	9.08
ATAATATTCGAGTGTGCACACAAACATACATATATA [CACACA_site3396]	11.1
ATACAGAAAAAAAACACACACACATAATATACATAC [CACACA_site1933]	6.91
ATTTTTATTAAAATATGTACGTATTTTACTCATACA [XGTACX_site5330]	6.55
ACAGATATATTTATTTGTACATATCACCAAAATGGA [XGTACX_site5644]	6.21
TAATTATTCTATTAAGTGCATATATTTTTAAAAAGA	9.39
TTTTTTTTTTATTTTTGTACATATATTTCAGTATTA [XGTACX_site8396]	6.38
ATAATATATATTAAACGTACATAAAATAATTATGGA [XGTACX_site1670]	6.43
GTATGTATATATGTATGTACTTATGTATCATTATTA [XGTACX_site2438]	6.12
TAATATTTATGTTAATGTACAAAAAAACAAAACAAA [XGTACX_site301]	6.64
ATAAAAATACAGTTAACACACATGTGTATTTATATG [CACACA_site7727]	7.21
GAAAACGTTTGAAGTTGTACATATGTATAAAAAGAA [XGTACX_site2304]	7.74
TGTTATTTAAATAATTCTTTTTAAAAGATGAATTAT [CACACA_negctrl_site1226]	6.46
ATGGTCTGTTAAAGATGTACTTTTTAAAAATAAACG [XGTACX_site2583]	6.4
CTATTTGGGGGAAGAGTGCATGACATGAATATAAAA	8.41
AAAAGGAAGATATATACACACATACAAATATATATA [CACACA_site5236]	6.81
ATAAATTTTTAAAAATATGAATTATGTAATTTGTGA [CACACA_negctrl_site1621]	6.31
TTTTTTTTTTTTTTCACACACTAATAATATTATCAT [CACACA_site4417]	6.56

Sequence	gcPBM binding intensity (ln)
CTATATTATAAATATACACACATATCTTAAGTATAA [CACACA_site3096]	6.48
TTGATGTATACAATGTAGATTATTTAATATTTCAAC [CACACA_negctrl_site73]	6.34
ATTAGTATTAGATGATGTACATTTATATTGAAATAT [XGTACX_site8537]	6.6
CTTTTTGAAATATTAACACACATTTTGTTAATTAAT [CACACA_site4046]	6.39
CACAGATAAATTAACACACACACACCCATATATATA [CACACA_site3960]	6.94
ATAATATAACACAAATGTACAAAAAATAAATAAATA [XGTACX_site385]	6.52
AACAAACACAGACACACACACACACCCAAATGATTA [CACACA_site2431]	6.98
TATATATATACTTAATGTACATATATATATATATAT [XGTACX_site3102]	9.26
CATACTCACCAACACACACACACACCCATATAGAAT [CACACA_site592]	7.36
ATGTAAAATTAATATTGTACTTTTCCATCATGATAC [XGTACX_site2669]	6.25
TATTATTTAATCAAATGTACATAGAAAATGTATGTA [XGTACX_site4433]	6.21
TATATTAAAGGGGTTTCACACACATGTATAATTAAT [CACACA_site7950]	6.58
CATATAATAAATAGATGTACAGACTATATATATATA [XGTACX_site6575]	8.96
TATATATATATTTTTGCACACATTTTTTAAGGTACA [CACACA_site2145]	10.3
TTTATATGATACACACGTACATATACACATATACAC [XGTACX_site8123]	7.58
TATAATATTTATATAACACACATATAGATTTATTTA [CACACA_site6269]	6.28
AATAGGAAAGATTTTGCATGTGATATAAGTAATTTT [TGCATGCA_site657]	6.27
TACGTAGCCACACTAACACACACAAATATGCACAAT [CACACA_site8942]	10
ATTAAATACATTAACACACACACAAATATGTACATA [CACACA_site7372]	6.94
ATATTATATAATATACGTACATATATTATGCATAAA [XGTACX_site7895]	7
